# Laboratory results taken from paper PMC4336329 (PLoS ONE, 2015).
# The campaign covered roughly 310,000 compounds. About 14,000 (4.5%) showed an effect of 50% or more. The effect is printed as a negative number. The list shows a part of the results.
# Molecular target: human ether-à-go-go-related gene (hERG) potassium channel (human, UniProt Q12809)
# Experiment: primary screen, population patch clamp on CHO cells stably expressing hERG
# 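Further: peak tail current of the secondary pulse compared with the same well before compound.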
# Sequence of human ether-à-go-go-related gene (hERG) potassium channel (Q12809 whole entry, looked up): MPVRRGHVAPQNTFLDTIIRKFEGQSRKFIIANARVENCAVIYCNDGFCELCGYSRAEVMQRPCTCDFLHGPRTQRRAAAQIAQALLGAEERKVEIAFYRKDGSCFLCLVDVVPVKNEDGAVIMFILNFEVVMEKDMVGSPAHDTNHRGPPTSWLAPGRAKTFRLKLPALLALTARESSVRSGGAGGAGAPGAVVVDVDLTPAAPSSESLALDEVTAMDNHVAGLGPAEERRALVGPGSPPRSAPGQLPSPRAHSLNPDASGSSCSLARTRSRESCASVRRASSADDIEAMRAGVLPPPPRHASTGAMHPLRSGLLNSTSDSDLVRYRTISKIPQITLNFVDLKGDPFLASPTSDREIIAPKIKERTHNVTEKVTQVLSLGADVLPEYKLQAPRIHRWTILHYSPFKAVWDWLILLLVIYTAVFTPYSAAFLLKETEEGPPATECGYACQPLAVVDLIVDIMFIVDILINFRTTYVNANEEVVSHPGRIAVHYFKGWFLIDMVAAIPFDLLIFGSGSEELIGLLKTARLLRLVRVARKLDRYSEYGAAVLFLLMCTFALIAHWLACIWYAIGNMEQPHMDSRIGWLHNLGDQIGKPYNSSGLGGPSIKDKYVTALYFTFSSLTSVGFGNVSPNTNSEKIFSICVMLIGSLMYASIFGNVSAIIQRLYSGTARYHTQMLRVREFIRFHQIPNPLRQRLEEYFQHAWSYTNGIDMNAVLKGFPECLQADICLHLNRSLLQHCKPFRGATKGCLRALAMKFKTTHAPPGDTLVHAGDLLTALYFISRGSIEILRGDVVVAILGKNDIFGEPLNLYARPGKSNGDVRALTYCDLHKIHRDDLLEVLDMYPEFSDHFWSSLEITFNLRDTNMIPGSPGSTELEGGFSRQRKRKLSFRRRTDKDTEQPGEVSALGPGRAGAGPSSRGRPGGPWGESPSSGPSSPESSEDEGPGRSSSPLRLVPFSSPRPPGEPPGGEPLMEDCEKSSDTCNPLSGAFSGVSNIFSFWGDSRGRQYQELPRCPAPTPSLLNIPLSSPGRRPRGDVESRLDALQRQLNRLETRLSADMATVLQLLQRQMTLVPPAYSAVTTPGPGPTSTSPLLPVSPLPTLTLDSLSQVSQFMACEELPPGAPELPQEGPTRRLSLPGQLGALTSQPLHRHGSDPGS
row,Structure (SMILES),"hERG current change (%, negative = inhibition) at 10uM [%]"
1,O=C(CN1CCCc2ccccc21)NC(=O)NC1CCCCC1,-17.7
2,COc1ccccc1CNC(=O)CSc1ccc(-c2cccc([N+](=O)[O-])c2)nn1,-28.9
3,CCOC(=O)COc1cccc2c(=O)n(CC(=O)NCc3ccc(F)cc3)ccc12,4.04
4,COc1ccc(S(=O)(=O)N2CCCCC2C(=O)O)cc1OC (stereo not drawn),27.7
5,CC1(C)CC(=O)C(N=Nc2cc(S(=O)(=O)N3CCOCC3)ccc2Cl)=C(O)C1,21.9
6,CCOC(=O)CC1NC(=O)c2ccccc21 (stereo not drawn),2.68
7,S=c1[nH]nc(-c2ccc(Cl)cc2Cl)n1-c1ccc2c(c1)OCCO2,6.46
8,O=C(CCSc1ccc(Cl)cc1)NCc1ccccn1,-10.4
9,O=C(Nc1ccccc1C(=O)N1CCCC1)c1ccc(Cl)cc1Cl,14
10,COc1ccccc1CNC(=O)C(C)Sc1ccsc1[N+](=O)[O-] (stereo not drawn),10.5
11,O=C(NCc1nc2ccccc2[nH]1)c1cccc(S(=O)(=O)N2CCOCC2)c1,-5.85
12,O=C(COc1ccc(S(=O)(=O)N2CCCCC2)cc1)NCc1ccccn1,9.02
13,O=S(=O)(c1ccc(Cl)cc1)N1CCC(n2cccc2)CC1,21.3
14,Cc1nn(-c2ccccc2)c(N)c1N=Nc1ccccc1,3.08
15,O=C(Nc1ccc(F)cc1)c1ccccc1NS(=O)(=O)N1CCCC1,-13.9
16,COc1ccc(-c2nn(-c3ccccc3C)cc2CNCCc2cnc[nH]2)cc1F,-70.6
17,N#Cc1c(NC(=O)C2CC(Cl)=CCC2C(=O)O)sc2c1CCCC2 (stereo not drawn),8.83
18,CC12CCC(C(=O)n3c1nc1ccccc13)C2(C)C (stereo not drawn),-3.14
19,COc1ccc(OC2OC3COC(c4ccco4)OC3C(O)C2NC(C)=O)cc1 (stereo not drawn),3.13
20,CSc1nc(SC)c2c3c(oc2n1)COC(C)(C)C3,7.86
21,O=C(O)CCC(=O)N1CCC(n2nnc3cc(C(F)(F)F)ccc32)CC1,10.5
22,COc1ccc2sc(NC(C)=O)nc2c1,3.39

row,Structure (SMILES),"hERG current change (%, negative = inhibition) at 10uM [%]"
1,COC(=O)c1cc(C(=O)c2cc(Br)ccc2O)coc1=N,30
2,Cl.O=C(CCc1ccccc1)OCCN1CCOCC1,11.8
3,CCN1C(=C(C#N)C#N)C=Cc2ccccc21,15.8
4,O=C(OCC(=O)N1CCc2ccccc21)c1ccncc1,-6.97
5,O=C(O)CC1(CC(=O)Nc2ccc3c(c2)OCCCO3)CCCCC1,2.87
6,O=C(Oc1cccc(C(=S)N2CCOCC2)c1)c1cccc(Cl)c1,16.1
7,COc1ccc(CCN(C)C2CC(=O)N(c3ccccc3)C2=O)cc1OC (stereo not drawn),-5.77
8,Cc1cc(S(=O)(=O)Nc2ccc(C(=O)NCCCN3CCCC3=O)cc2)ccc1F,8.37
9,c1ccc(CN2CCC(N3CCN(Cc4ccc5c(c4)OCO5)CC3)CC2)cc1,-39.8
10,Cc1cc(OCC(=O)NCc2ccccn2)c2c(C)cc(=O)oc2c1,-7.15
11,CCSc1nnc(CNC(=O)c2ccccc2F)n1-c1ccccc1OC,12.4
12,COc1cccc(OCCCN2CCN(S(=O)(=O)c3ccc(NC(C)=O)cc3)CC2)c1,-4.74
13,CC(C)Cc1ccc(/C(=N/O)C(=O)O)s1,3.56
14,CCOc1ccc(Cc2noc3c2C(=O)CCC3)cc1OCC,20.4
15,COC(=O)c1ccc(NC(=O)CSC2=Nc3ccccc3C3CC=NN23)cc1 (stereo not drawn),-7.06
16,O=C(COC(=O)c1ccc(O)cc1O)N=c1sccn1Cc1ccccc1Cl,-5.24
17,CCOC(=O)c1c(S(=O)(=O)N2CCN(C)CC2)c(C)n(C)c1C,6.74
18,CS(=O)(=O)C1=NSC2=NC(=O)/C(=C\c3ccc(OC(=O)c4ccco4)cc3)C(=N)N21,13.7
19,COc1ccccc1NS(=O)(=O)c1cc(NC(=O)C(C)NC(N)=O)ccc1N1CCCC1 (stereo not drawn),-32.2
20,CCCCOc1ccc(C(C)NC(=O)CCS(=O)(=O)Cc2ccccc2Cl)cc1 (stereo not drawn),8.55
21,CCc1nc(NC(=O)c2sc(C)nc2C)sc1C(=O)OC,7.48
22,Cc1ccc(C)c(NC(=O)C2CC(=O)N(C3CCCCC3)C2)c1 (stereo not drawn),2.58

row,Structure (SMILES),"hERG current change (%, negative = inhibition) at 10uM [%]"
1,COc1cc(S(=O)(=O)Nc2ccc3nc(C)sc3c2)ccc1NC(C)=O,21.3
2,Cc1ccccc1NC(=O)c1c(C)cc(=O)oc1C,25
3,Cc1ccc(OCC(=O)Nc2cc(S(=O)(=O)N3CCCCC3)ccc2N2CCN(C)CC2)c(C)c1,-57.7
4,CCCCN(CCCC)C(=O)CN(C)S(=O)(=O)c1ccc2c(c1)n(C)c(=O)c(=O)n2C,-37
5,CC1CN(c2ccccc2)c2nc3c(c(=O)[nH]c(=O)n3C)n2C1 (stereo not drawn),6.11
6,Cc1cccc(OCC(O)Cn2c(N3CCCCC3)nc3c2c(=O)[nH]c(=O)n3C)c1 (stereo not drawn),13
7,O=C(Nc1cccc2ncccc12)c1cc([N+](=O)[O-])ccc1Cl,19.6
8,COC(=O)c1c(N2C(=O)CC(Sc3ccccc3C(=O)O)C2=O)sc(C)c1C (stereo not drawn),27.9
9,O=C(CNC(=O)c1ccco1)NCC(=O)OCC(=O)c1ccc(Cl)c([N+](=O)[O-])c1,8.13
10,CCOc1ccc(-n2nnc3c(=O)n(CC(=O)NCc4ccco4)cnc32)cc1,10
11,CCc1c(C(=O)N/N=C/c2ccco2)nnn1-c1nonc1N,15.9
12,Cc1cccc(NC(=O)CN2C(=O)COc3ccc(Cl)cc32)c1,-4.75
13,Cc1ccc2nc(Nc3nc(C)cc(C(F)(F)F)n3)nc(C)c2c1,0.741
14,CC1(C)CC(=O)c2cc(C(=O)NC3CCSC3=O)c(=O)n(-c3ccccc3)c2C1 (stereo not drawn),-0.214
15,CCC(=O)N1CCN(CCN=CC2=C(O)CC(C)(C)CC2=O)CC1,7.27
16,C#CCOCCOCCOCCNc1nc(N2CCN(C(=O)[C@H](Cc3cc4ccccc4[nH]3)n3cc([C@@H](N)C(C)CC)nn3)CC2)nc(N2CCN(C(=O)[C@H](Cc3cc4ccccc4[nH]3)n3cc([C@@H](N)Cc4ccc(O)cc4)nn3)CC2)n1.Cl (stereo partly drawn),1.23
17,Cc1c2cnn(CC(=O)NCCCN3CC(C)CC(C)C3)c(=O)c2c(C)n1Cc1ccc(Cl)cc1 (stereo not drawn),-52.6
18,Cc1ccc([N+](=O)[O-])c(OCCN2CCCCCC2)c1.O=C(O)C(=O)O,-34
19,CCOc1ccccc1N1CCN(Cc2cnc(-c3ccccc3)[nH]2)CC1,-40.6
20,CC1CC(C)CN(CCC(=O)Nc2ccc(Br)cc2)C1.Cl (stereo not drawn),-53.5
21,CSc1nc(NCCOCCO)c2sc3nc(-c4ccco4)c4c(c3c2n1)CCC4,-0.753
22,O=C1CCC(=O)N1OCCOc1ccc(Cl)c2ccccc12,7.01

row,Structure (SMILES),"hERG current change (%, negative = inhibition) at 10uM [%]"
1,O=C(CCN1C(=O)/C(=C/c2ccccc2Cl)SC1=S)N1CCOCC1,20.8
2,COc1ccccc1-c1nnc(NC(=O)C(C)SC2=NCCS2)s1 (stereo not drawn),-0.0971
3,Cc1cc(C)c2nc(N3CCC(C(=O)NCc4ccccn4)CC3)sc2c1,-25.3
4,COc1cc(S(=O)(=O)n2nc(C)cc2C)c(OC)cc1Cl,-8.58
5,COc1ccc(C(CNC(=O)c2oc3ccc(C)cc3c2C)N2CCCCC2)cc1 (stereo not drawn),6.26
6,COc1ccccc1CNC(=O)CCC(=O)N1CCOc2ccc(Cl)cc21,-5.43
7,O=C(Cn1ncc2c3ccccc3n(Cc3ccccc3)c2c1=O)NC1CCCC1,10.1
8,O=C(c1ccccc1NS(=O)(=O)c1ccc2c(c1)OCCO2)N1CCOCC1,7.56
9,CCOC(=O)N1CCC(=NNC(=O)c2ccc(O)cc2)CC1,4.27
10,CC(NC(=O)C1(c2cccs2)CCOCC1)c1ccccc1 (stereo not drawn),9.67
11,O=C(CCC(=O)N1CCN(S(=O)(=O)c2cccc(F)c2)CC1)c1cccs1,-8.66
12,Cc1ccccc1OCC(=O)N1N=C(C(F)(F)F)CC1(O)C(C)(C)C (stereo not drawn),-22.9
13,O=C1CCN(C(=O)Nc2ccccc2Cl)N1,-4.64
14,CCOC(=O)C1CCN(Cc2cc(C(C)(C)C)c(O)c(C(C)(C)C)c2)CC1,-63.1
15,COc1ccccc1NC(=O)C(C)OC(=O)CSCC(=O)Nc1cc(C)on1 (stereo not drawn),9.01
16,COc1ccc(-c2nc(-c3ccccc3)c(-c3cc([N+](=O)[O-])ccc3C)[nH]2)cc1O,3.31
17,Cc1onc(-c2ccccc2Cl)c1C(=O)N(Cc1ccccc1)C(C)C,-3.26
18,CCN(CC)C(=O)C(=O)N/N=C/c1ccc(C(=O)O)cc1,9.78
19,C/C(=N\NC(=O)c1nnn(-c2nonc2N)c1C(C)C)c1ccncc1,6.73
20,Cc1cccc(NS(=O)(=O)c2nnc(NC(=O)C3CCCCC3)s2)c1,11.5
21,O=C(c1ccc(F)cc1)C1CCN(C(=O)Nc2ccc(F)cc2)CC1,-71.7
